Results from the supplement of paper PMC12217912.
This is one part of the list. Sequences were assembled here from the parent chain. Inactive controls read about 0.05.

B1: TEV protease; numbered along this chain (parent)
chain: MGESLFKGPRDYNPISSSICHLTNESDGHTTSLYGIGFGPFIITNKHLFRRNNGTLVVQSLHGVFKVKDTTTLQQHLVDGRDMIIIRMPKDFPPFPQKLKFREPQREERICLVTTNFQTKSMSSMVSDTSCTFPSGDGIFWKHWIQTKDGQCGSPLVSTRDGFIVGIHSASNFTNTNNYFTSVPKNFMELLTNQEAQQWVSGWRLNADSVLWGGHKVFMVKPEEPFQPVKEATQL

Variants of: B1
Assay: raw area under fraction-flipped curve 0-4 h after induction (AUC4h, not background-subtracted), DNA-recorder readout of cleavage of the substrate (dimensionless); higher = more cleavage of the substrate by the protease variant
Details: temperature: 34 °C; time window: 0-4 h after rhamnose induction
Procedure: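 In vivo DNA recorder in E. coli TOP10(DE3) ΔrhaA at 34 °C. Each TEVp single-site mutant (parent TEVp 0) is paired with a single-site variant of the 7-mer TEVs (canonical ENLYFQ|S). The substrate sits between flexible linkers in a Bxb1-sfGFP-TEVs-SsrA fusion, so cleavage stabilises Bxb1 and speeds flipping of a recombination array, read by NGS. The value is the raw area under the fraction-flipped curve over 0-4 h after rhamnose induction (AUC4h), with ≥20 reads per time point. It is not background-subtracted; inactive controls average about 0.047.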
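Also: Bxb1 expression induced with 0.2% (w/v) L-rhamnose at OD600 near 0.5, cultures sampled hourly, flipped fraction per protease–substrate barcode pair counted by paired-end Illumina sequencing.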

Variant | area with substrate ENLYEQS | area with substrate ENLYHQS | area with substrate ENLYIQS | area with substrate ENLYRQS | area with substrate ENLYTQS | area with substrate ENLYWQS | area with substrate ENLYNQS | area with substrate ENLYPQS | area with substrate ENLYGQS | area with substrate ENLYKQS
MGESLFKGPRDYNPISSSICHLTNESDGHTTSLYGIGFGPFIITNKHLFRRNNGTLVVQSLHGVFKVKDTTTLQQHLVDGRDMIIIRMPKDFPPFPQKLKFREPQREERICLVTTNFQTKSMSSMVSDTSCTFPHGDGIFWKHWIQTKDGQCGSPLVSTRDGFIVGIHSASNFTNTNNYFTSVPKNFMELLTNQEAQQWVSGWRLNADSVLWGGHKVFMVKPEEPFQPVKEATQL [S135H] | 0.0665 | 0.0637 | 0.0563 | 0.0621 | 0.0669 | 0.0622 | – | – | – | –
MGESLFKGPRDYNPISSSICHLTNESDGHTTSLYGIGFGPFIITNKHLFRRNNGTLVVQSLHGVFKVKDTTTLQQHLVDGRDMIIIRMPKDFPPFPQKLKFREPQREERICLVTTNFQTKSMSSMVSDTSCTFPSGDMIFWKHWIQTKDGQCGSPLVSTRDGFIVGIHSASNFTNTNNYFTSVPKNFMELLTNQEAQQWVSGWRLNADSVLWGGHKVFMVKPEEPFQPVKEATQL [G138M] | 0.0628 | 0.0696 | – | 0.0737 | – | – | 0.0498 | 0.0535 | – | –
MGESLFKGPRDYNPISSSICHLTNESDGHTTSLYGIGFGPFIITNKHLFRRNNGTLVVQSLHGVFKVKDTTTLQQHLVDGRDMIIIRMPKDFPPFPQKLKFREPQREERICLVTTNFQTKSMSSMVSDTSCTFPSGDGIFWNHWIQTKDGQCGSPLVSTRDGFIVGIHSASNFTNTNNYFTSVPKNFMELLTNQEAQQWVSGWRLNADSVLWGGHKVFMVKPEEPFQPVKEATQL [K142N] | 0.0693 | 0.0771 | – | 0.0697 | – | – | 0.0744 | – | 0.0315 | 0.0633
MGESLFKGPRDYNPISSSICHLTNESDGHTTSLYGIGFGPFIITNKHLFRRNNGTLVVQSLHGVFKVKDTTTLQQHLVDGRDMIIIRMPKDFPPFPQKLKFREPQREERICLVTTNFQTKSMSSMVSDTSCTFPSGDGIFWKNWIQTKDGQCGSPLVSTRDGFIVGIHSASNFTNTNNYFTSVPKNFMELLTNQEAQQWVSGWRLNADSVLWGGHKVFMVKPEEPFQPVKEATQL [H143N] | 0.0762 | – | – | – | – | 0.0643 | – | – | 0.0679 | –
MGESLFKGPRDYNPISSSICHLTNESDGHTTSLYGIGFGPFIITNKHLFRRNNGTLVVQSLHGVFKVKDTTTLQQHLVDGRDMIIIRMPKDFPPFPQKLKFREPQREERICLVTTNFQTKSMSSMVSDTSCTFPSGDGIFWKHWIQTKDGQCFSPLVSTRDGFIVGIHSASNFTNTNNYFTSVPKNFMELLTNQEAQQWVSGWRLNADSVLWGGHKVFMVKPEEPFQPVKEATQL [G153F] | 0.0467 | – | – | – | – | 0.0587 | 0.0538 | – | – | 0.0434
MGESLFKGPRDYNPISSSICHLTNESDGHTTSLYGIGFGPFIITNKHLFRRNNGTLVVQSLHGVFKVKDTTTLQQHLVDGRDMIIIRMPKDFPPFPQKLKFREPQREERICLVTTNFQTKSMSSMVSDTSCTFPSGDGIFWKHWIQTKDGQCQSPLVSTRDGFIVGIHSASNFTNTNNYFTSVPKNFMELLTNQEAQQWVSGWRLNADSVLWGGHKVFMVKPEEPFQPVKEATQL [G153Q] | 0.0443 | – | – | – | – | – | 0.0409 | – | 0.0278 | –
MGESLFKGPRDYNPISSSICHLTNESDGHTTSLYGIGFGPFIITNKHLFRRNNGTLVVQSLHGVFKVKDTTTLQQHLVDGRDMIIIRMPKDFPPFPQKLKFREPQREERICLVTTNFQTKSMSSMVSDTSCTFPSGDGIFWKHWIQTKDGQCSSPLVSTRDGFIVGIHSASNFTNTNNYFTSVPKNFMELLTNQEAQQWVSGWRLNADSVLWGGHKVFMVKPEEPFQPVKEATQL [G153S] | 0.0611 | 0.057 | – | 0.0595 | – | – | 0.0772 | 0.0574 | – | –
MGESLFKGPRDYNPISSSICHLTNESDGHTTSLYGIGFGPFIITNKHLFRRNNGTLVVQSLHGVFKVKDTTTLQQHLVDGRDMIIIRMPKDFPPFPQKLKFREPQREERICLVTTNFQTKSMSSMVSDTSCTFPSGDGIFWKHWIQTKDGQCGIPLVSTRDGFIVGIHSASNFTNTNNYFTSVPKNFMELLTNQEAQQWVSGWRLNADSVLWGGHKVFMVKPEEPFQPVKEATQL [S154I] | 0.0638 | – | – | – | – | – | – | – | – | 0.0654
MGESLFKGPRDYNPISSSICHLTNESDGHTTSLYGIGFGPFIITNKHLFRRNNGTLVVQSLHGVFKVKDTTTLQQHLVDGRDMIIIRMPKDFPPFPQKLKFREPQREERICLVTTNFQTKSMSSMVSDTSCTFPSGDGIFWKHWIQTKDGQCGVPLVSTRDGFIVGIHSASNFTNTNNYFTSVPKNFMELLTNQEAQQWVSGWRLNADSVLWGGHKVFMVKPEEPFQPVKEATQL [S154V] | 0.0596 | 0.0615 | 0.159 | 0.0706 | – | 0.0574 | – | 0.0692 | 0.0497 | 0.0469
MGESLFKGPRDYNPISSSICHLTNESDGHTTSLYGIGFGPFIITNKHLFRRNNGTLVVQSLHGVFKVKDTTTLQQHLVDGRDMIIIRMPKDFPPFPQKLKFREPQREERICLVTTNFQTKSMSSMVSDTSCTFPSGDGIFWKHWIQTKDGQCGSPLVSPRDGFIVGIHSASNFTNTNNYFTSVPKNFMELLTNQEAQQWVSGWRLNADSVLWGGHKVFMVKPEEPFQPVKEATQL [T159P] | 0.0492 | 0.0366 | – | – | – | 0.112 | – | 0.0774 | 0.0777 | –
MGESLFKGPRDYNPISSSICHLTNESDGHTTSLYGIGFGPFIITNKHLFRRNNGTLVVQSLHGVFKVKDTTTLQQHLVDGRDMIIIRMPKDFPPFPQKLKFREPQREERICLVTTNFQTKSMSSMVSDTSCTFPSGDGIFWKHWIQTKDGQCGSPLVSTRGGFIVGIHSASNFTNTNNYFTSVPKNFMELLTNQEAQQWVSGWRLNADSVLWGGHKVFMVKPEEPFQPVKEATQL [D161G] | 0.079 | 0.0713 | – | 0.056 | – | 0.0586 | – | 0.062 | 0.0365 | 0.0717

Same assay, conditions: temperature: 34 °C; time window: 0-4 h after rhamnose induction

Variant | area with substrate ENLYMQS | area with substrate ENLYSQS | area with substrate ENLYYQS | area with substrate ENLYQQS | area with substrate ENLYVQS | area with substrate ENLYLQS
MGESLFKGPRDYNPISSSICHLTNESDGHTTSLYGIGFGPFIITNKHLFRRNNGTLVVQSLHGVFKVKDTTTLQQHLVDGRDMIIIRMPKDFPPFPQKLKFREPQREERICLVTTNFQTKSMSSMVSDTSCTFPSGDGIFWNHWIQTKDGQCGSPLVSTRDGFIVGIHSASNFTNTNNYFTSVPKNFMELLTNQEAQQWVSGWRLNADSVLWGGHKVFMVKPEEPFQPVKEATQL [K142N] | 0.0768 | 0.0667 | – | – | – | –
MGESLFKGPRDYNPISSSICHLTNESDGHTTSLYGIGFGPFIITNKHLFRRNNGTLVVQSLHGVFKVKDTTTLQQHLVDGRDMIIIRMPKDFPPFPQKLKFREPQREERICLVTTNFQTKSMSSMVSDTSCTFPSGDGIFWKNWIQTKDGQCGSPLVSTRDGFIVGIHSASNFTNTNNYFTSVPKNFMELLTNQEAQQWVSGWRLNADSVLWGGHKVFMVKPEEPFQPVKEATQL [H143N] | – | – | 0.0483 | – | – | –
MGESLFKGPRDYNPISSSICHLTNESDGHTTSLYGIGFGPFIITNKHLFRRNNGTLVVQSLHGVFKVKDTTTLQQHLVDGRDMIIIRMPKDFPPFPQKLKFREPQREERICLVTTNFQTKSMSSMVSDTSCTFPSGDGIFWKHWIQTKDGQCFSPLVSTRDGFIVGIHSASNFTNTNNYFTSVPKNFMELLTNQEAQQWVSGWRLNADSVLWGGHKVFMVKPEEPFQPVKEATQL [G153F] | – | – | – | 0.0571 | – | –
MGESLFKGPRDYNPISSSICHLTNESDGHTTSLYGIGFGPFIITNKHLFRRNNGTLVVQSLHGVFKVKDTTTLQQHLVDGRDMIIIRMPKDFPPFPQKLKFREPQREERICLVTTNFQTKSMSSMVSDTSCTFPSGDGIFWKHWIQTKDGQCQSPLVSTRDGFIVGIHSASNFTNTNNYFTSVPKNFMELLTNQEAQQWVSGWRLNADSVLWGGHKVFMVKPEEPFQPVKEATQL [G153Q] | 0.0552 | – | – | – | – | –
MGESLFKGPRDYNPISSSICHLTNESDGHTTSLYGIGFGPFIITNKHLFRRNNGTLVVQSLHGVFKVKDTTTLQQHLVDGRDMIIIRMPKDFPPFPQKLKFREPQREERICLVTTNFQTKSMSSMVSDTSCTFPSGDGIFWKHWIQTKDGQCSSPLVSTRDGFIVGIHSASNFTNTNNYFTSVPKNFMELLTNQEAQQWVSGWRLNADSVLWGGHKVFMVKPEEPFQPVKEATQL [G153S] | 0.0582 | – | 0.0639 | – | – | –
MGESLFKGPRDYNPISSSICHLTNESDGHTTSLYGIGFGPFIITNKHLFRRNNGTLVVQSLHGVFKVKDTTTLQQHLVDGRDMIIIRMPKDFPPFPQKLKFREPQREERICLVTTNFQTKSMSSMVSDTSCTFPSGDGIFWKHWIQTKDGQCGIPLVSTRDGFIVGIHSASNFTNTNNYFTSVPKNFMELLTNQEAQQWVSGWRLNADSVLWGGHKVFMVKPEEPFQPVKEATQL [S154I] | 0.082 | – | – | 0.0715 | – | –
MGESLFKGPRDYNPISSSICHLTNESDGHTTSLYGIGFGPFIITNKHLFRRNNGTLVVQSLHGVFKVKDTTTLQQHLVDGRDMIIIRMPKDFPPFPQKLKFREPQREERICLVTTNFQTKSMSSMVSDTSCTFPSGDGIFWKHWIQTKDGQCGVPLVSTRDGFIVGIHSASNFTNTNNYFTSVPKNFMELLTNQEAQQWVSGWRLNADSVLWGGHKVFMVKPEEPFQPVKEATQL [S154V] | – | – | – | – | 0.131 | –
MGESLFKGPRDYNPISSSICHLTNESDGHTTSLYGIGFGPFIITNKHLFRRNNGTLVVQSLHGVFKVKDTTTLQQHLVDGRDMIIIRMPKDFPPFPQKLKFREPQREERICLVTTNFQTKSMSSMVSDTSCTFPSGDGIFWKHWIQTKDGQCGSPLVSTRGGFIVGIHSASNFTNTNNYFTSVPKNFMELLTNQEAQQWVSGWRLNADSVLWGGHKVFMVKPEEPFQPVKEATQL [D161G] | 0.0906 | – | 0.0504 | 0.0598 | – | 0.0881
